# In PubChem BioAssay AID624417 (National Center for Advancing Translational Sciences (NCATS), 2012):
# The campaign covered roughly 410,000 compounds. About 6,400 (1.6%) were called active. Inconclusive means that the source gave no clear call. Such entries were picked first, then a sample of the others. The call rests on the fitted dose curve; in most records, active means well fitted inhibition curve with a large enough effect; inconclusive means small, poorly fitted or top-dose-only effect; inactive means no such curve, though single readings can be large or run the other way. Potencies of inconclusive entries are left out as doubtful fits.
# Target: Glucagon-like peptide 1 receptor (Homo sapiens) (UniProt P43220)
# Experiment: qHTS of GLP-1 Receptor Inverse Agonists (Inhibition Mode); further: nearly all actives have a fitted effect of over 55% in size
# Conditions: HEK293 GLP-1R CRE-luciferase, luminescence, 24 h, GLP-1R form is constitutively active; series mostly up to 38.3 µM
# Procedure, shortened: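 qHTS in 1536-well format: reporter HEK293 cells expressing constitutive GLP-1R activity in DMEM + 10% Nu serum, 24 hr with compounds at 37 deg C, luminescence read after 12 min with detection reagent.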
# Potency means the concentration at half of the fitted maximal effect; tags describe the fitted curve by direction and shape.
# UniProt P43220, sequence (P43220 whole entry, looked up): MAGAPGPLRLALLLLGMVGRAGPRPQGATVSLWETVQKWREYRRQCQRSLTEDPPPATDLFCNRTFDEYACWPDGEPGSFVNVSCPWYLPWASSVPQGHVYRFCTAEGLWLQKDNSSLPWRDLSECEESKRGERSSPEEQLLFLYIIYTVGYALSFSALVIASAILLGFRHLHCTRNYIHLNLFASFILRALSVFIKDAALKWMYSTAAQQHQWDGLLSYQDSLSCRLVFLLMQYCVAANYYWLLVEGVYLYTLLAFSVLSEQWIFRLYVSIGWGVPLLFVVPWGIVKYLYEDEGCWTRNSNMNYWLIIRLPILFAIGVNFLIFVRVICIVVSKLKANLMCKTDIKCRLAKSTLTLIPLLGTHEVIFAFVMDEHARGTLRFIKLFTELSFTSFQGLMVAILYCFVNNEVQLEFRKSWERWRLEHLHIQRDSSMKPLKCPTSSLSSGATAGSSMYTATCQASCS
row,Structure (SMILES),Potency
1,Cc1ccc(CNC(=O)C2CCCN(Cc3nc(-c4cccc(C)c4)oc3C)C2)cc1 (centres undefined),"inconclusive [inhibitor, single point]"
2,O=C(NCC1CC1)c1onc(CSc2ccc(F)c(F)c2)c1C(=O)NCC1CC1,"inconclusive [inhibitor, partial curve, poor fit]"
3,Cc1ccc(OCCC(=O)OCC(=O)c2c(N)n(CC(C)C)c(=O)n(C)c2=O)cc1,"inconclusive [inhibitor, single point]"
4,COc1cccc(CN2CCCN(S(=O)(=O)c3ccc(Br)cc3)CC2)c1,"inconclusive [inhibitor, single point]"
5,Cc1ccc2nc(SCC(=O)N3CCC(Cc4ccccc4)CC3)nc(=O)n2c1,"inconclusive [inhibitor, partial curve]"
6,Cc1cc(Cl)c(S(=O)(=O)Nc2ccc(Cl)cn2)cc1OCC(N)=O,inactive
7,O=C1NC(Cc2ccc(O)cc2)c2nc3ccc(Br)cc3c(=O)n2-c2cc3ccccc3cc21 (centres undefined),"inconclusive [inhibitor, full curve, poor fit]"
8,CCN(CC(=O)Nc1c(F)cccc1F)C(=O)c1n[nH]c2ccccc12,"inconclusive [inhibitor, full curve, poor fit]"
9,C=CCN(CC=C)Cc1c(O)ccc2c(=O)c(-c3ccccc3)coc12,"inconclusive [inhibitor, partial curve, poor fit]"
10,Cc1c(-c2nc(-c3ccc4c(c3)OCO4)no2)nnn1-c1cccc(C(F)(F)F)c1,inactive
11,O=S(=O)(c1ccc(N2CCOCC2)nc1)N1CCOCC1,inactive
12,COc1ccc(S(=O)(=O)N(C)C[C@H]2Oc3ccc(NC(=O)Nc4ccc(C(F)(F)F)cc4)cc3C(=O)N([C@H](C)CO)C[C@@H]2C)cc1,"inconclusive [inhibitor, partial curve, poor fit]"
13,O=c1cc(-c2ccccc2)nc2c(-c3ccccc3)c(C(F)(F)F)[nH]n12,"inconclusive [inhibitor, single point]"
14,O=[N+]([O-])c1nccn1CCCCCCCCCCCN1CCOCC1,"inconclusive [inhibitor, single point]"
15,COc1cccc(CNc2nc3cc(-c4ccccc4C)sc3c(=O)n2C)c1,"inconclusive [inhibitor, single point]"
16,CCOc1ccccc1/C=C/C(=O)c1ccc(Cl)cc1,"inconclusive [inhibitor, partial curve, poor fit]"
17,OCC1(CCOc2ccccc2)CCN(Cc2ccc(OC(F)F)cc2)CC1,"inconclusive [inhibitor, partial curve, poor fit]"
18,Nc1nc(-c2ccc3c(c2)CCCC3)cs1,"inconclusive [inhibitor, partial curve, poor fit]"
19,Cc1cc(C)c(NC2=NCC(=O)N2C2CCCCC2)c(C)c1,"inconclusive [inhibitor, single point]"
20,O=C(/C=C/c1ccco1)Oc1cc(Br)cc(/C=N/NC(=O)c2ccccc2O)c1,"inconclusive [inhibitor, partial curve, poor fit]"

row,Structure (SMILES),Potency
1,COc1ccccc1C(=O)NNC(=O)c1ccc2ccccc2c1O,"inconclusive [inhibitor, single point]"
2,Cc1ccc(C)c(OCCOCCN2CCOCC2)c1,inactive
3,CC(C)(C)OC(=O)CC(S(=O)(=O)c1ccccc1)S(=O)(=O)c1ccccc1,"inconclusive [inhibitor, single point]"
4,COc1cccc(NCc2cc(=O)oc3cc(-c4ccccc4)c(O)cc23)c1,"inconclusive [inhibitor, partial curve, poor fit]"
5,O=C(O)/C(=C\c1ccc(Cl)c([N+](=O)[O-])c1)c1ccc(S(=O)(=O)N2CCCCC2)s1,inactive
6,Cc1occc1C(=O)N1N=C(C2CC2)CC1(O)C(F)(F)F (centres undefined),"inconclusive [inhibitor, partial curve, poor fit]"
7,CC1(C)C(/C=C/C=C/C=C/C=C2\N(CCCCS(=O)(=O)O)c3ccc4ccccc4c3C2(C)C)=[N+](CCCCS(=O)(=O)[O-])c2ccc3ccccc3c21,inactive
8,Cc1cccc(NC(=O)CN2CCN(C(=O)c3oc4c(Cl)cccc4c3C)CC2)c1C,"inconclusive [inhibitor, single point]"
9,Cn1cc(CN2CCCC(CO)C2)c(-c2ccc(Oc3ccccc3)cc2)n1 (centres undefined),"inconclusive [inhibitor, partial curve, poor fit]"
10,Oc1cccc(Nc2nc(-c3ccccc3Cl)nc3ccccc23)c1,"inconclusive [inhibitor, partial curve]"
11,Cc1ccc(OCCOCCN2CCN(C)CC2)c([N+](=O)[O-])c1,inactive
12,CC(C)Oc1ccc(CNS(=O)(=O)c2ccc(-c3cc(C(F)(F)F)on3)s2)cc1,inactive
13,O=C(Nc1ccccc1)c1cccnc1NCCc1ccccc1,"inconclusive [inhibitor, partial curve, poor fit]"
14,CC(OC(=O)C1CCCCC1)C(=O)Nc1cccc([N+](=O)[O-])c1 (centres undefined),"inconclusive [inhibitor, single point]"
15,CCN(CC)S(=O)(=O)c1cccc(NC(=O)CN(C)C2CCCCC2)c1,"inconclusive [inhibitor, partial curve, poor fit]"
16,CCCCCN(C(=O)CCC(=O)OCCOc1cccc(C)c1)c1c(N)n(CCCC)c(=O)[nH]c1=O,"inconclusive [inhibitor, single point]"
17,CCc1ccc(NC(=O)CCC(=O)N2CCSc3ccccc32)cc1,"inconclusive [inhibitor, partial curve, poor fit]"
18,Cc1cccnc1Nc1nc(-c2ccc(F)cc2)cs1,"inconclusive [inhibitor, single point]"
19,COc1cccc(-c2csc(N3CCN(C(=O)Nc4ccccc4Cl)CC3)n2)c1,"inconclusive [inhibitor, single point]"
